Test results as given in PubChem BioAssay AID1240 (Sanford-Burnham Center for Chemical Genomics, 2008).
The whole screen tested about 50,000 compounds, of which about 800 (1.6%) showed an effect of 50% or more. Some of the results follow.

These compounds were tested against Bcl-2-like protein 10 (Homo sapiens) (UniProt Q9HD36) (assay: Phenotype converters, Bcl-B/TR3 peptide binding displacement, primary biochemical FP (AID 1240;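 further: 0% = Bcl-B with tracer peptide and DMSO and 100% = tracer peptide lacking Bcl-B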)). Conditions: GST-Bcl-B / FITC-TR3 peptide fluorescence polarization; stronger effect = higher value; compound at 3.75 mg/L.
Sequence of UniProt Q9HD36 (Q9HD36 whole entry, looked up): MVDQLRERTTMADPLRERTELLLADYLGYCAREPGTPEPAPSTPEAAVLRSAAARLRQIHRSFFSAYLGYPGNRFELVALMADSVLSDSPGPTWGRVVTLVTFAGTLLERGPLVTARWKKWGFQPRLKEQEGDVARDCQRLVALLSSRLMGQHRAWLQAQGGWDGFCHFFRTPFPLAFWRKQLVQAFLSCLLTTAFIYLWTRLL

Row | Compound | displacement
1 | Cc1ccc(/C(N)=N/OC(=O)/C=C/c2ccccc2)cc1 | 4.6%
2 | COc1ccc(S(=O)(=O)NNC(=O)c2ccc(OC)c(OC)c2)cc1 | -8%
3 | O=C(c1ccc(-c2ccccc2)cc1)N1CCN(C(=O)c2cccs2)CC1 | 11.9%
4 | CC(C)c1ccccc1NC(=O)/C=C/C(=O)O | 1.7%
5 | Clc1ccc(CN2C3=NCCCN3c3ccccc32)cc1 | 5%
6 | Cc1cc(NC(=O)c2ccc(-c3ccc(Br)cc3)o2)ccc1NC(=O)c1ccco1 | -2.6%
7 | Cc1ccc(S(=O)(=O)N(C)Cc2ccccc2)cc1[N+](=O)[O-] | 4.9%
8 | CCOC(=O)c1sc(NC(=O)COc2ccc(C)cc2C)c(C(=O)OCC)c1C | 10.1%
9 | Cc1ccc(C(=O)N/C(=C/c2ccc(-c3ccccc3[N+](=O)[O-])o2)C(=O)NCc2ccco2)cc1 | 37.2%
10 | Cc1c(N2C(=O)CCCC2=O)c(=O)n(-c2ccccc2)n1C | 5.3%
11 | CCOC(=O)c1c(NC(=O)/C=C/c2cc(OC)ccc2OC)sc2c1CCC2 | -2.1%
12 | CCOC(=O)/C=C(\C)Nc1cc(-c2ccc(Br)cc2)[nH]n1 | -8.4%
13 | O=C(CCCOc1ccc(Cl)cc1Cl)Nc1ccc(S(=O)(=O)Nc2nccs2)cc1 | 11.8%
14 | CCN1C(=O)/C(=C\c2cn(CCOc3ccc(Br)cc3)c3ccccc23)SC1=S | 1.9%
15 | O=C(Nc1ccccc1Br)c1cc(-c2cccs2)nc2ccccc12 | 0.4%
16 | CS(=O)(=O)N1CCN(Cc2cccnc2)CC1 | -9.8%
17 | Cc1cc(OCC(=O)N2CCN(c3ccc([N+](=O)[O-])cc3)CC2)ccc1Br | 3.2%
18 | COc1ccc(/C=C2/SC(=S)N(CC(=O)Nc3ccc(O)cc3)C2=O)cc1OC | 9.4%
19 | O=C(c1cnn2c1NC(c1cccs1)CC2C(F)(F)F)N1CCSCC1 (configuration not stated) | -0.6%
20 | O=[N+]([O-])c1ccc(NCCCN2CCOCC2)c(Cl)c1 | 12.3%
21 | Cc1cc(C(=O)NC(C)Cc2ccccc2)cc(C)c1N (configuration not stated) | -1.4%
22 | CSC1=C(C#N)C(c2cccs2)CC(=O)N1 (configuration not stated) | -12.2%
23 | COc1ccc(-c2cc(=O)oc3c(C)c(OC(C)=O)ccc23)cc1 | -5.1%

Row | Compound | displacement
24 | NC(=O)NC(c1ccccc1)c1ccc(Cl)cc1 (configuration not stated) | -3.4%
25 | Cc1ccc(/C(N)=N/OC(=O)COc2ccc3ccccc3c2)cc1 | -3.9%
26 | Cc1ccc(CN2CCN(N=Cc3cccc(Br)c3)CC2)c(C)c1 | 12.4%
27 | COc1ccc(CC(=O)O/N=C(\N)c2ccc(C)cc2)cc1OC | -0.5%
28 | COc1ccc(Cl)cc1NC(=O)c1ccccc1N(Cc1ccccc1)S(=O)(=O)c1ccc(C)cc1 | 3.2%
29 | O=C(/C=C/c1cccc(C(F)(F)F)c1)Nc1ccc([N+](=O)[O-])cc1 | 11.8%
30 | COC(=O)c1cc(NC(C)=O)c(C)c(NC(C)=O)c1[N+](=O)[O-] | -12.6%
31 | COc1cc(NC(=O)S(=O)(=O)c2ccccc2)ccc1NC(=O)c1ccco1 | 0.7%
32 | CC(C)C(=O)Nc1ccc(I)cc1Cl | 11.1%
33 | O=C1N=c2ccccc2=C1c1sc(=S)n(NC(=O)c2ccccc2Br)c1O | -9.4%
34 | Nc1nc(-c2cccc([N+](=O)[O-])c2)cs1 | -8.1%
35 | O=C(CCNc1ccc(Cl)c(C(F)(F)F)c1)c1ccco1 | -1.4%
36 | CC(C)(C)c1ccc(C(=O)Nc2ccc(NC(=O)COc3ccccc3Cl)cc2)cc1 | -2.3%
37 | O=C(Nc1ccc2c(c1)oc1ccccc12)c1cccs1 | 9.7%
38 | CCCN(CCC)C(=O)c1c(NC(=O)c2cccs2)sc2c1CCCCC2 | 10.5%
39 | CCOC(=O)C(=O)Nc1ccc(C(N)=O)cc1 | 13.6%
40 | COc1cc(NC(=O)c2cccs2)ccc1NC(=O)c1ccco1 | 11.7%
41 | Cc1nn(-c2ccccc2)c2c1C(c1c(Cl)cccc1Cl)C(C#N)=C(N)O2 (configuration not stated) | -10.1%
42 | CCN=C1SC(CC(=O)Nc2ccc(N3CCCCC3)cc2)C(=O)N1CC (configuration not stated) | -2.2%
43 | COc1ccccc1CNC(=O)COc1ccc(Cl)cc1Br | -8%
44 | O=c1/c(=C\c2ccc(-c3cccc(Br)c3)o2)sc2nc3ccccc3n12 | 11.2%
45 | O=C1NC(=O)/C(=C\c2cc3c(cc2Br)OCO3)S1 | 11.9%
46 | O=C(CN1CCOCC1)Nc1c(-c2ccccc2)c2cc(Br)ccc2[nH]c1=O | 8.7%

Row | Compound | displacement
47 | CCCCN1C(=O)C(=O)c2cc(Br)ccc21 | -7.7%
48 | O=c1oc2cc(OCc3ccccc3F)ccc2c2ccccc12 | 1.2%
49 | COc1ccc(C(=O)/C=C/Nc2ccc(NC(C)=O)cc2)cc1 | 10.7%
50 | O=C(NC(NC(=S)Nc1cccc(C(=O)O)c1)C(Cl)(Cl)Cl)OCc1ccccc1 (configuration not stated) | -2%
51 | Cc1ccc(-c2ccc(OCC(=O)Nc3ccccc3C)cc2)cc1 | 3.1%
52 | Cc1ccc(C(=O)NNC(=O)c2ccc(O)cc2)cc1 | -8.4%
53 | O=C1CC(c2cccs2)CC2=C1C(c1ccsc1)Nc1ccccc1N2 (configuration not stated) | 0%
54 | O=C(COc1ccccc1Cl)NNC(=O)c1ccc(O)cc1 | -9.4%
55 | CCNC(=S)NNC(=O)c1cccc(Br)c1 | -7.1%
56 | O=C1/C(=C/c2ccc(Cl)cc2)SC(=S)N1CCc1ccccc1 | 9.1%
57 | CC(C)(C)c1cc(NC(=O)c2cc(F)c(F)c(F)c2F)no1 | -15.3%
58 | C=CCSc1nnc2nc(C)cc(C)n12 | 1%
59 | Cc1cccc(NC(=O)CSc2nccn2C)c1C | 0%
60 | COc1ccc(/C=C/C(=O)Nc2cc3nn(-c4ccc(C)cc4)nc3cc2C)cc1 | 10.7%
61 | COC(=O)C1=C(C)N(c2cccc(OC)c2)C(=O)/C1=C\c1ccccc1F | 4.7%
62 | Cc1c(Cl)cccc1-n1ncnc1-c1ccc(Br)cc1 | 9.5%
63 | NC(=O)c1c(NC(=O)CCCC(=O)O)sc2c1CCCCC2 | 10.4%
64 | Cc1c(C2(c3c(C)n(C)n(-c4ccccc4)c3=O)C(=O)Nc3ccccc32)c(=O)n(-c2ccccc2)n1C | -0.2%
65 | O=C(NCC1CCCO1)c1ccccc1Cl (configuration not stated) | -6.7%
66 | O=C(CSc1cc(Cl)ccc1Cl)Nc1cccc([N+](=O)[O-])c1 | 11.6%
67 | O=C1CCC(c2ccccc2)N1C(=O)c1cccnc1 (configuration not stated) | -8%
68 | O=C1C=C(C(F)(F)C(F)(F)F)Nc2ccccc2N1 | -1.6%
69 | O=C(CN(c1ccc(F)cc1)S(=O)(=O)c1ccccc1)Nc1cc(Cl)cc(Cl)c1 | 2.9%

Row | Compound | displacement
70 | O=C(COc1ccccc1Cl)NNC(=O)c1cc2ccccc2cc1O | -29.5%
71 | N#C/C(=C/c1ccccc1[N+](=O)[O-])C(=O)Nc1ccc(Cl)cc1 | -3.7%
72 | CCOC(=O)c1ccc(Nc2nnc(-c3ccccc3)c3ccccc23)cc1 | -6.6%
73 | Cc1ccc2cc(NC(=O)c3cccc(F)c3)ccc2n1 | 5.2%
74 | O=C(CNc1n[nH]c(=O)[nH]c1=O)N/N=C/c1c(Cl)cccc1Cl | -10.1%
75 | Cc1ccc(C(=O)NC=C(C#N)C#N)cc1 | 5.5%
76 | N/C(=N\OC(=O)c1ccc(Cl)cc1)c1ccc(Br)cc1 | 15.5%
77 | O=C(NC(NC(=S)Nc1c(Cl)cccc1Cl)C(Cl)(Cl)Cl)c1ccccc1 (configuration not stated) | -4.5%
78 | CCOC(=O)C1=C(C)N=c2s/c(=C\c3ccc(N(C)C)o3)c(=O)n2C1c1ccc(F)cc1 (configuration not stated) | -22.6%
79 | COc1cc(NC(=O)COc2ccccc2C)cc(OC)c1 | 4.1%
80 | Cc1ccccc1N1C(=O)c2cccc3c(C(=O)O)ccc(c23)C1=O | -0.9%
81 | Cn1cc(N)c(C(=O)Nc2ccc3c(c2)C(=O)NC3=O)n1 | 5.6%
82 | O=C(Nc1ccc(O)cc1C(=O)O)c1ccccc1Br | 11.4%
83 | CCc1c(C)sc(NC(=O)C(C)Oc2cccc(Cl)c2)c1C#N (configuration not stated) | -27.5%
84 | C=CCN1C(=O)/C(=C\c2ccc(-c3ccc([N+](=O)[O-])cc3Cl)o2)C(=O)NC1=S | 21%
85 | O=C(Nc1cccc(F)c1)c1cc(S(=O)(=O)N2CCCCC2)ccc1Cl | -0.1%
86 | CCCCOc1ccc(NC(=O)CSc2nnc(N)s2)cc1 | -16.9%
87 | NS(=O)(=O)c1cccc(NC(=O)c2cccc3c(Br)cccc23)c1 | -11.9%
88 | Cc1cccc(NC(=O)c2cc3c(ccc4ccccc43)oc2=O)n1 | -7%
89 | CSc1ccccc1NC(=O)CC1Nc2ccccc2NC1=O (configuration not stated) | -0.2%
90 | O=C(O)CCCCCN1C(=O)C(=O)/C(=C(/O)c2ccccc2)C1c1ccc(Cl)cc1 (configuration not stated) | 3%
91 | Cc1ccccc1C(=O)N/N=C/c1ccc(Sc2nnnn2-c2ccccc2)o1 | -23.6%
92 | O=C(Nc1ccccn1)C(=O)NC1CCCCC1 | 9.2%

Row | Compound | displacement
93 | Cc1c(Cl)ccc2c(N=Nc3ccccn3)c(O)[nH]c12 | 9.3%
94 | COCCCNC(=O)COc1cccc(C)c1 | 13%
95 | Cc1cc([N+](=O)[O-])ccc1N=Cc1ccc(O)cc1O | -27.9%
96 | COc1ccc2[nH]c(C)c(CCC(C)=O)c(=S)c2c1 | 13.6%
97 | c1ccc(-c2cc(-c3nc4ccccc4[nH]3)c3ccccc3n2)cc1 | 11.8%
98 | COCCN1C(=O)/C(=C\c2ccc(N(C)C)cc2)C(C(=O)OC)=C1C | 11.7%
99 | CCCOc1ccc(C(=O)Nc2ccccc2C(=O)O)cc1 | 11.6%
100 | CCN(CC)C(=O)CN1C(=O)C(=O)c2ccccc21 | 3.9%
101 | Nc1ccc(-c2nc3cc(N)ccc3s2)cc1 | -4.1%
102 | COC(=O)c1cn(C(=O)c2ccc(C)c([N+](=O)[O-])c2)c2ccccc12 | -2.1%
103 | O=C(c1ccccc1)N1CCN(C(=O)c2nn3c(C(F)(F)F)cc(-c4cccs4)nc3c2Br)CC1 | 11.9%
104 | COc1ccccc1OCCOc1ccc(/C=C2/C(=O)NC(=O)N(c3ccccc3C)C2=O)cc1OC | 76.2%
105 | N#CC(C#N)=Cc1ccc(-c2ccc(Cl)c(C(=O)O)c2)o1 | 0.6%
106 | CN(C)CCN(Cc1ccccc1)c1ccnc(N(C)C)c1C#N | 6.2%
107 | CCOC(=O)CCCSc1nc2sc(C)c(C)c2c(=O)n1-c1ccccc1 | -8%
108 | CCCN1C(=O)c2ccccc2NC1c1ccc(OC)c(COc2ccc([N+](=O)[O-])cc2)c1 (configuration not stated) | 14.7%
109 | c1ccc(OCCCCN2CCCC2)cc1 | -5.9%
110 | COc1ccc(CCNC(=O)C2CC2)cc1OC | 0.7%
111 | Fc1ccc(Br)cc1C1Nc2cccc3cccc(c23)N1 | 13.8%
112 | Cc1ccc(CC(C)CC(=O)NCCc2ccc3c(c2)OCO3)cc1 (configuration not stated) | 12.2%
